Assay results reported in the supplement of paper PMC11417369.
± gives the standard deviation of the averaged measurements. The list shows a part of the results.

Test system: PfAP2-I AP2 domain 3 (GST-tagged)
Test: gcPBM binding intensity (ln(normalized median fluorescence intensity)); higher = stronger DNA binding
Method in brief: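 Probes on an Agilent 4 × 180k array were primer-extended, double-stranded and 36 bp long, taken from intergenic genomic regions, with negative controls added. GST-tagged P. falciparum DNA-binding domains from E. coli, about 25 μg on average, were applied to the array for 1 h in 1× PBS containing 1% milk, 0.2 mg/ml BSA, 0.5% salmon testes DNA and 0.03% Triton X-100. Binding intensity, obtained after Alexa488 anti-GST antibody detection and a 488 nm scan, is the highest Masliner-normalised natural-log median intensity across replicate spots of either probe orientation.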

Which “gcPBM binding intensity (ln)” value does the source give for “TTTTAATTAAAAAAATATATAATAAAATTAAATTAT [CACACA_negctrl_site95]” here?
The value was 7.36 ± 0.52.

With “AAATATAAAAAATATACACACATATAAAATCTATAT [CACACA_site7406]” as the sequence, how does the “gcPBM binding intensity (ln)” value read?
The value was 7.53 ± 0.59.

For “TTTTAAAAAAAACAAAAACATTGTCATATGGAAAAT [CACACA_negctrl_site297]”, which “gcPBM binding intensity (ln)” value is on record?
Its value is 7.86 ± 0.69.

Which “gcPBM binding intensity (ln)” value does the source give for “GTATGTTAATTTAATTGTACAAAAAGATACACTGAT [XGTACX_site5710]” here?
Its value is 8.13 ± 0.44.

For “AGGAACAATATATTTGCACACAAAAAATATATATTT [CACACA_site3316]”, which “gcPBM binding intensity (ln)” value is on record?
Its value is 9.205 ± 0.021.

How did the “gcPBM binding intensity (ln)” value turn out when “TATATAAATGTTATCACACACTCACGTTTGACAAAA [CACACA_site6468]” was run?
Its value is 7.67 ± 0.6.

How did the “gcPBM binding intensity (ln)” value turn out when “TTTACAATATAAAATACACACACACTAACATATATT [CACACA_site9231]” was run?
Its value is 7.88 ± 0.51.

With “TCCTTTTTTAAAAGTTGTACATTATTGTTATTTGTT [XGTACX_site4686]” as the sequence, how does the “gcPBM binding intensity (ln)” value read?
Its value is 7.76 ± 0.46.

Which “gcPBM binding intensity (ln)” value does the source give for “ATACAATAAAATAAGTTTGAATAAAATTAAATATAT [CACACA_negctrl_site877]” here?
The value was 7.47 ± 0.62.

For “GAAGGAAATAATAGTAGTACAAATGGTAAGAAATAT [XGTACX_site5845]”, which “gcPBM binding intensity (ln)” value is on record?
The value was 8.39 ± 0.78.

Which “gcPBM binding intensity (ln)” value does the source give for “TTCCTCTTAATATGTGCACACTAAATTATAACCTAA [CACACA_site5751]” here?
Its value is 10.47 ± 0.064.

How did the “gcPBM binding intensity (ln)” value turn out when “GAGAAAGATATATACACACACATAAATATGTACATA [CACACA_site6975]” was run?
The value was 7.68 ± 0.47.

Which “gcPBM binding intensity (ln)” value does the source give for “TTTACAATATTAAAATGTACATATAAAATAAATAAA [XGTACX_site8367]” here?
The value was 7.92 ± 0.42.

How did the “gcPBM binding intensity (ln)” value turn out when “TTTCCCAAGCTTATTACACACAAGTAGAATAAGCTT [CACACA_site1561]” was run?
Its value is 7.53 ± 0.51.

For “TATATAGGTAAAAAATGTACTTATATTGAATATATT [XGTACX_site4414]”, which “gcPBM binding intensity (ln)” value is on record?
The value was 7.62 ± 0.66.

How did the “gcPBM binding intensity (ln)” value turn out when “GATATCAAATATAAATGTACAAATTATATATACATA [XGTACX_site3228]” was run?
Its value is 7.42 ± 0.29.

How did the “gcPBM binding intensity (ln)” value turn out when “TTCTTATTTATTTTCTTCTCCTTCCTCAAATTTTTT [GTGCAC_negctrl_site592]” was run?
Its value is 7.93 ± 0.71.

Which “gcPBM binding intensity (ln)” value does the source give for “AATTTGTTAATATTTTGTACACATAATATAAAAACA [XGTACX_site2224]” here?
The value was 7.86 ± 0.28.

With “TATATGTTATATTGGACACACACAATAAACATTATG [CACACA_site8480]” as the sequence, how does the “gcPBM binding intensity (ln)” value read?
The value was 7.71 ± 0.43.

Which “gcPBM binding intensity (ln)” value does the source give for “AAACATAAAGAAAAAAAAAATATATATTTATTTATT [GTGCAC_negctrl_site357]” here?
The value was 7.44 ± 0.54.

Which “gcPBM binding intensity (ln)” value does the source give for “ATAAAAATGGTGTTAACACACACATATATATATATA [CACACA_site8089]” here?
Its value is 9.51 ± 0.22.

For “TTATTTAAATATTGATGTACTCTCCTTATTATAATA [XGTACX_site1240]”, which “gcPBM binding intensity (ln)” value is on record?
The value was 7.89 ± 0.5.

Which “gcPBM binding intensity (ln)” value does the source give for “GGTAATTATTTTGGTTGTACTCAAATATATAATATT [XGTACX_site291]” here?
The value was 8.13 ± 0.33.

With “ATGTCATAAATGTACGCACACATACATAAACATATA [CACACA_site4530]” as the sequence, how does the “gcPBM binding intensity (ln)” value read?
Its value is 8.52 ± 0.14.

Which “gcPBM binding intensity (ln)” value does the source give for “TTCATTTTAATTTCCAGTACACATATATATACATAT [XGTACX_site558]” here?
The value was 8.11 ± 0.27.

“ATTTATTTCTATAATACACACAAATATCTTAATTAA [CACACA_site7801]” was tested. Which “gcPBM binding intensity (ln)” value did it give?
The value was 7.71 ± 0.44.

For ATTATATTTATGTTGGTGCATTATACATGAAATTTA, which “gcPBM binding intensity (ln)” value is on record?
Its value is 11.5 ± 0.43.

Which “gcPBM binding intensity (ln)” value does the source give for “AATATAATACAATATTGTACATAATATAAATTAAAA [XGTACX_site4064]” here?
Its value is 7.59 ± 0.44.

Which “gcPBM binding intensity (ln)” value does the source give for “TTATACTGTTTCAGAAAAATAAAGAATGAAAGTATT [XGTACX_negctrl_site230]” here?
Its value is 8.07 ± 0.49.

Which “gcPBM binding intensity (ln)” value does the source give for “TTTTTATATTCCCCCAGTACATATATAATAGTAGTA [XGTACX_site7927]” here?
Its value is 9.435 ± 0.007.

For “AATAAAAAAATAAAATGTACATACAAATAAATAAAT [XGTACX_site5153]”, which “gcPBM binding intensity (ln)” value is on record?
Its value is 7.8 ± 0.67.

With “TGCAACAAAATAAACACACACACACCCCCACAAAAA [CACACA_site3388]” as the sequence, how does the “gcPBM binding intensity (ln)” value read?
Its value is 10.2 ± 0.26.

Which “gcPBM binding intensity (ln)” value does the source give for “TATTTTAATGAAGCATTTAAGGGAAAAAAAAAAAAA [TGCATGCA_negctrl_site606]” here?
The value was 8.22 ± 0.64.

With “GTATACCAACATATTATACACACCTTTATATTTTTT [CACACA_site2153]” as the sequence, how does the “gcPBM binding intensity (ln)” value read?
The value was 7.88 ± 0.7.

For “ATAAGATGATGGAACTGTAATATATATATATATATA [CACACA_negctrl_site839]”, which “gcPBM binding intensity (ln)” value is on record?
The value was 9.23 ± 0.38.

With “TTTAAGAGTTGCACACGTACAAAAAAAAAAAAAAAA [XGTACX_site7406]” as the sequence, how does the “gcPBM binding intensity (ln)” value read?
The value was 8.545 ± 0.064.

With “TTGTATACATAAAATGGTACAGAATATATAATTCTA [XGTACX_site7236]” as the sequence, how does the “gcPBM binding intensity (ln)” value read?
Its value is 7.45 ± 0.61.

With “TTAATTAAAATTTATACATGCATAAAAGAAATACAC [TGCATGCA_site537]” as the sequence, how does the “gcPBM binding intensity (ln)” value read?
The value was 8.62 ± 0.37.

With “ATTACATGTTACTTAACACACATCTGGTGAAATAAT [CACACA_site171]” as the sequence, how does the “gcPBM binding intensity (ln)” value read?
The value was 7.91 ± 0.54.

“GTAATGAAACATTGCACACATATAATAATATAATAT [CACACA_site1422]” was tested. Which “gcPBM binding intensity (ln)” value did it give?
The value was 8.685 ± 0.035.

How did the “gcPBM binding intensity (ln)” value turn out when “ATTTTTTTCTTTTCTTTTTTCTTTTTTTTTTTTGGT [CACACA_negctrl_site1146]” was run?
The value was 7.46 ± 0.76.

How did the “gcPBM binding intensity (ln)” value turn out when “TTTACGCTATAGGAGAGTACTTATAAAATCCTGTGT [XGTACX_site2364]” was run?
Its value is 7.7 ± 0.55.

Which “gcPBM binding intensity (ln)” value does the source give for “TTCATATATTTTAAAGCATGCATTCATCTTATAGTT [TGCATGCA_site800]” here?
Its value is 7.92 ± 0.59.

“AGACGAAAATAATAAAGTACTAAAAAAAAAAAAAAA [XGTACX_site927]” was tested. Which “gcPBM binding intensity (ln)” value did it give?
Its value is 8.01 ± 0.54.
